Source: the supplement of paper PMC4967469
By IC50 is meant the dose at which the fit gives 50% viability; a limit (>, <) means that the fit lies beyond the doses tested. AUC is the area under the same curve over the 256-fold range up to the top dose, as a fraction: 1 means no effect, lower means more sensitive.

Compound: N#CC[C@H](C1CCCC1)n1cc(-c2ncnc3[nH]ccc23)cn1 [Ruxolitinib]
Test: Viability of human cancer cell lines after 72 h of drug (GDSC screen)
Experimental: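 Human cancer cell lines in 384-well plates, medium with 10% serum, drug for 72 h over a 256-fold dose range (nine 2-fold or five 4-fold steps up to the top dose). Adherent lines were fixed and stained with the nucleic acid dye Syto60, suspension lines read with resazurin; signal relative to control wells, capped at 0 and 100%. One two-parameter sigmoid per drug and line, fitted in a mixed model over all curves with the slope shared within a line.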

Cell Line | AUC | IC50 [µM]
TE-1 (oesophagus, adherent, top dose 5.24 µM) | 0.977 | > 5.24
H-EMC-SS (chondrosarcoma, adherent, top dose 5.24 µM) | 0.966 | > 5.24
EFO-21 (ovary, adherent, top dose 5.24 µM) | 0.975 | > 5.24
SW780 (bladder, adherent, top dose 5.24 µM) | 0.986 | > 5.24
COLO-680N (oesophagus, adherent, top dose 5.24 µM) | 0.984 | > 5.24
NCI-H520 (lung squamous cell carcinoma, adherent, top dose 5.24 µM) | 0.986 | > 5.24
ES7 (Ewing sarcoma, adherent, top dose 5.24 µM) | 0.955 | > 5.24
GP5d (large intestine, adherent, top dose 5.24 µM) | 0.99 | > 5.24
A253 (head and neck, adherent, top dose 5.24 µM) | 0.988 | > 5.24
P30-OHK (lymphoblastic leukaemia, suspension, top dose 5.24 µM) | 0.967 | > 5.24
KYSE-180 (oesophagus, adherent, top dose 5.24 µM) | 0.987 | > 5.24
HARA (lung squamous cell carcinoma, adherent, top dose 5.24 µM) | 0.951 | > 5.24
HCC1428 (breast, adherent, top dose 5.24 µM) | 0.987 | > 5.24
NCI-H647 (non-small cell lung carcinoma, adherent, top dose 5.24 µM) | 0.972 | > 5.24
MFE-280 (endometrium, adherent, top dose 5.24 µM) | 0.972 | > 5.24
JiyoyeP-2003 (Burkitt lymphoma, suspension, top dose 5.24 µM) | 0.991 | > 5.24

Cell Line | AUC | IC50 [µM]
UMC-11 (lung carcinoid, adherent, top dose 5.24 µM) | 0.991 | > 5.24
OCUB-M (breast, adherent, top dose 5.24 µM) | 0.987 | > 5.24
SK-UT-1 (soft tissue, adherent, top dose 5.24 µM) | 0.989 | > 5.24
OCI-AML3 (acute myeloid leukaemia, suspension, top dose 5.24 µM) | 0.986 | > 5.24
RCC10RGB (kidney, adherent, top dose 1.024 µM) | 0.972 | > 1.02
HCC1569 (breast, adherent, top dose 5.24 µM) | 0.97 | > 5.24
CHSA8926 (chondrosarcoma, adherent, top dose 5.24 µM) | 0.976 | > 5.24
HCC-78 (lung adenocarcinoma, adherent, top dose 5.24 µM) | 0.98 | > 5.24
SNU-81 (large intestine, adherent, top dose 5.24 µM) | 0.98 | > 5.24
HPAC (pancreas, adherent, top dose 5.24 µM) | 0.977 | > 5.24
RPMI-6666 (Hodgkin lymphoma, suspension, top dose 5.24 µM) | 0.974 | > 5.24
LK-2 (lung squamous cell carcinoma, adherent, top dose 5.24 µM) | 0.989 | > 5.24
NCI-SNU-1 (stomach, suspension, top dose 5.24 µM) | 0.981 | > 5.24
MFE-319 (endometrium, adherent, top dose 5.24 µM) | 0.988 | > 5.24
OAW-28 (ovary, adherent, top dose 5.24 µM) | 0.981 | > 5.24
HuO9 (osteosarcoma, adherent, top dose 5.24 µM) | 0.967 | > 5.24
